The test system of the test is MIWI (PIWIL1) piRISC loaded with L1MC piRNA (30 nt). The test is described as follows: pre-steady-state target cleavage rate (min^-1); MIWI and MILI are mouse PIWI proteins and EfPiwi is from a freshwater sponge; tags in brackets are library labels; higher = faster piRNA-guided slicing of the target. To be noted: guide: L1MC piRNA 5'p-UAACUAAAUACUAUGCAAGCUGUAGGUCCU
In short, it runs like this: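 In this Cleave-'n-Seq assay, uncleaved targets were sequenced and normalised to depth and to weakly complementary targets. They came from a transcribed, DNA-blocked target RNA library […] mixed with 1 nM active affinity-purified piRISC carrying one synthetic guide, with or without 500 nM GTSF1 partner protein, in HEPES–potassium acetate buffer at 33 °C for 0–8 or 0–960 min. After three trials were pooled and k3 was capped at 0.0001 min^-1, the pre-steady-state cleavage rate was obtained from a burst-and-steady-state fit.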

Where [1] appears, read: auxiliary factor: 500 nM mouse GTSF1.
Where [2] appears, read: auxiliary factor: none (no GTSF1).

± gives the standard deviation. The list shows a part of the results, in another mix than the full data.

Experimental findings from the supplement of paper PMC10338343 are described below.
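Also: 1 nM active piRISC with 0.1 nM target library at 33 °C single turnover.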

Consider UCGACCUACAGCUAGCAUAGUAUUUACUUA, for which the “pre-steady-state target cleavage rate” value was 0.51 ± 0.027 under setting [1] and 0.0177 ± 0.0043 under setting [2].

As for UCCUGGUACAGCUUGCAUAGUAAUUUGUUA, the “pre-steady-state target cleavage rate” value by setting is: under setting [1], 0.349 ± 0.064; under setting [2], 0.0176 ± 0.0044.

For the sequence UCCUGCUAGUCCUUGCAUAGUAUUUAGUUA, the “pre-steady-state target cleavage rate” value runs as follows: under setting [1], 0.273 ± 0.023; under setting [2], 0.0153 ± 0.003.

As to UGGACCUACAGCUUGCAAACUAUUUAGUUA, the “pre-steady-state target cleavage rate” value amounted to 0.345 ± 0.024 under setting [1] and 0.00874 ± 0.0027 under setting [2].

With UCCUCCUACUGCUUGCAUAGUAUUUAGUUA, the “pre-steady-state target cleavage rate” value is, setting by setting: under setting [1], 1.02 ± 0.036; under setting [2], 0.0456 ± 0.0061.

For the sequence UCCUCCAUCAGCUUGCAUAGUAUUUACAAA, the “pre-steady-state target cleavage rate” value is, setting by setting: under setting [1], 0.204 ± 0.033; under setting [2], 0.00387 ± 0.0023.

Turning to UCCAGCUACAGCUUCCAUAGUAUUUAGUUA, the “pre-steady-state target cleavage rate” value under setting [1] was found to be 0.0966 ± 0.022 and the “pre-steady-state target cleavage rate” value under setting [2] was 0.00298 ± 0.0021.

For the sequence UCCUGGAACAGCUUGCCUAGUAUUUAGUUA, the “pre-steady-state target cleavage rate” value reads like this: under setting [1], 1.13 ± 0.051; under setting [2], 0.0521 ± 0.011.

With UCGACCUACAGCUUGGAUUGUAUUUAGUUA, the “pre-steady-state target cleavage rate” value amounted to 0.681 ± 0.025 under setting [1] and 0.0143 ± 0.0034 under setting [2].

Regarding AGGACCUACAGCUUGCAUAGUAUUUGGUUA, the “pre-steady-state target cleavage rate” value reads like this: under setting [1], 0.794 ± 0.045; under setting [2], 0.0742 ± 0.014.

In the case of UCCUGCUACAGCUUGCAAAGUAUUUUGUUA, the “pre-steady-state target cleavage rate” value came out at 0.791 ± 0.053 under setting [1] and 0.0173 ± 0.0033 under setting [2].

Take UCCACCUUCAGCUUGCAUAGUAUAUAGUUA: the “pre-steady-state target cleavage rate” value reads like this: under setting [1], 0.569 ± 0.051; under setting [2], 0.0216 ± 0.0061.

Consider “UCCACCUACAGCUUGCAUAGUAUUUAGUUU [g2:g27:cont:t1U]”, for which the “pre-steady-state target cleavage rate” value under setting [1] amounted to 1.1 ± 0.04 and the “pre-steady-state target cleavage rate” value under setting [2] is 0.0848 ± 0.018.

Regarding AGGACCUACAGCUUGGAUUGUAUUUAGUUA, the “pre-steady-state target cleavage rate” value is 0.643 ± 0.036 under setting [1] and 0.0162 ± 0.0038 under setting [2].

In the case of UGGACCUACAGCUUGCAAAGAAUUUAGUUA, the “pre-steady-state target cleavage rate” value is, setting by setting: under setting [1], 0.256 ± 0.017; under setting [2], 0.0112 ± 0.0043.

As to UCCUGCUACAGCUUGCAUAGUAUUUACUAA, the “pre-steady-state target cleavage rate” value runs as follows: under setting [1], 0.18 ± 0.022; under setting [2], 0.00613 ± 0.0031.

With UCGACCUACAGCUUGCAAAGUAUUAAGUUA, the “pre-steady-state target cleavage rate” value runs as follows: under setting [1], 0.777 ± 0.051; under setting [2], 0.00875 ± 0.0026.

UCCUGGAUGUCCUUGCAUAGUAUUUUAGUUA: the “pre-steady-state target cleavage rate” value turned out to be 0.0149 ± 0.0046 under setting [1] and 0.00474 ± 0.0022 under setting [2].

Turning to UGGACCUACAGCUUGCAUAGAAAUUAGUUA, the “pre-steady-state target cleavage rate” value was found to be 0.121 ± 0.011 under setting [1] and 0.00373 ± 0.0027 under setting [2].

With UCCUGGAUGAGUCUUGCAUAGUAUUUAGUUA, the “pre-steady-state target cleavage rate” value amounted to 0.255 ± 0.022 under setting [1] and 0.0183 ± 0.0044 under setting [2].
